The values below come from PMC4336329 (PLoS ONE, 2015).

The campaign covered roughly 310,000 compounds. About 2,200 (0.71%) showed an effect of 50% or more. Effects have a minus sign here. This is one part of the list.

For this test, the target named is human ether-à-go-go-related gene (hERG) potassium channel (human, UniProt Q12809). Put plainly: primary screen, population patch clamp on CHO cells stably expressing hERG.
human ether-à-go-go-related gene (hERG) potassium channel, sequence (Q12809 whole entry, looked up): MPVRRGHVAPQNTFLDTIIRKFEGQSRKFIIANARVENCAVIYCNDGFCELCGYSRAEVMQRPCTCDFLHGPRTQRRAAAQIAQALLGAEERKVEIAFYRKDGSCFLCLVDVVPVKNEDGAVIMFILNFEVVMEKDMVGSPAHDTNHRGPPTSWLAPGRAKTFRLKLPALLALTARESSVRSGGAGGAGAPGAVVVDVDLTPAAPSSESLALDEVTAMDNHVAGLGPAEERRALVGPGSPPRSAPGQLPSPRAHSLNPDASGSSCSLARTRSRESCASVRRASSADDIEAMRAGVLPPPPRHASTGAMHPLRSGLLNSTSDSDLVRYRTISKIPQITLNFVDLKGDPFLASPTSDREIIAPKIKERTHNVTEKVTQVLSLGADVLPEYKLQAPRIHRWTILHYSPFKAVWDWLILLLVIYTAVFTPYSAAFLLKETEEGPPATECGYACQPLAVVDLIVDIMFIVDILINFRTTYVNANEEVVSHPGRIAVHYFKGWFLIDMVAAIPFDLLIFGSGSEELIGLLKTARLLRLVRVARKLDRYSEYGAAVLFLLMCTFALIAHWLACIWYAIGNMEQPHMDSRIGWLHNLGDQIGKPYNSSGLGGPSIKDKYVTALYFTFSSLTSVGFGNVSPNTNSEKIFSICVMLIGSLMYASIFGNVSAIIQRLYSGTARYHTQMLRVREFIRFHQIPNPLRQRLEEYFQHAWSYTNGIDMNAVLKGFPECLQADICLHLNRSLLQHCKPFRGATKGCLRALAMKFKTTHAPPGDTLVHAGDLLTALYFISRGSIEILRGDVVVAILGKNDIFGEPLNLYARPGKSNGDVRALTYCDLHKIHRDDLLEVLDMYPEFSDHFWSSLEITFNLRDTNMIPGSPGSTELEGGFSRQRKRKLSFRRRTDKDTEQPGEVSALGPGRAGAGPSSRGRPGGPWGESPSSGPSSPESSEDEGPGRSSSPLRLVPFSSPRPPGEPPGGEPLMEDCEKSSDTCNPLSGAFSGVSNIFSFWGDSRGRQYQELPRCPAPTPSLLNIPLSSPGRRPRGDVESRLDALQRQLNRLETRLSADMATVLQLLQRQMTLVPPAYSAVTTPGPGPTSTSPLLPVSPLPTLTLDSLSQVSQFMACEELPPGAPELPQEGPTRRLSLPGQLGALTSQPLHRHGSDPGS
Consider `C#CCOC(=O)c1ccccc1C(=O)OCC#C`, for which the “hERG current change (%, negative = inhibition) at 1uM” value came to 6.37%.
The figure for `O=C(c1cc(-c2ccccc2Cl)nc2ccc(Br)cc12)N1CCN(c2ccccn2)CC1` is 6.28%; for `Cn1cc(S(=O)(=O)NC2CCCC2)c(=O)n(C)c1=O` it is 1.88%; for `COc1ccc(N(C(=O)c2ccco2)S(=O)(=O)c2cccc([N+](=O)[O-])c2)cc1` it is 17.3%.
Regarding `CCOC(=O)c1cccc(NC(=O)CSc2nncn2-c2ccccn2)c1`, the “hERG current change (%, negative = inhibition) at 1uM” value is recorded as 13.1%.
On to `Cc1ccc(NC(=O)c2ccc3c(c2)C(=O)N(c2ccccc2C)C3=O)nc1`, for which the “hERG current change (%, negative = inhibition) at 1uM” value came to 11.9%.
For the compound `CCCOc1ccc(C(=O)N(CC(C)C)c2c(N)n(Cc3ccccc3)c(=O)[nH]c2=O)cc1`, the “hERG current change (%, negative = inhibition) at 1uM” value is listed as -8.27%.
Consider `Cc1ccc(C)c(N(C(=O)CNC(=O)c2ccco2)C(C(=O)NC2CCCCC2)c2ccncc2)c1` (stereo not drawn), for which the “hERG current change (%, negative = inhibition) at 1uM” value was found to be 7.2%.
For `COc1ccc(/C=C\C(=O)c2c(O)ccc3c(C)cc(=O)oc23)cc1`, the “hERG current change (%, negative = inhibition) at 1uM” value worked out at 13.3%.
For `CN(C(=O)c1ccc(S(=O)(=O)N(C)C)cc1)c1ccc2ccccc2c1`, the “hERG current change (%, negative = inhibition) at 1uM” value was determined as 17.4%.
Regarding `CC(C)COc1ccc(-c2nn(-c3ccccc3)cc2/C=C2/SC(=S)N(CC(=O)O)C2=O)cc1`, the “hERG current change (%, negative = inhibition) at 1uM” value was found to be 10.1%.
Regarding `CCc1ccc(N2C(=O)C(Cl)=C(N3CCOCC3)C2=O)cc1`, the “hERG current change (%, negative = inhibition) at 1uM” value is 5.65%.
The figure for `N#CC1=C(N)Oc2n[nH]c(-c3cccs3)c2C1C1CCCCC1` (stereo not drawn) is 7.59%; for `CCN(C(=O)COC(=O)CNC(=O)c1ccc(C)s1)c1ccccc1` it is 13.5%.
On to `COc1ccc(N2CCN(c3nc(Cl)nc(Nc4ccc(F)cc4)n3)CC2)cc1`, for which the “hERG current change (%, negative = inhibition) at 1uM” value is reported as 1.64%.
For the compound `O=S(=O)(c1ccc(S(=O)(=O)N2CCN(C/C=C/c3ccccc3)CC2)cc1)N1CCCC1`, the “hERG current change (%, negative = inhibition) at 1uM” value was found to be 8.92%.
In the case of `COc1cc(C2CC(=O)c3cnc(N)nc3C2)cc(OC)c1OC` (stereo not drawn), the “hERG current change (%, negative = inhibition) at 1uM” value is given as 10.8%.
Turning to `O=C(COC(=O)c1cn(-c2ccccc2)nc1-c1ccccc1)c1cccc([N+](=O)[O-])c1`, the “hERG current change (%, negative = inhibition) at 1uM” value amounted to 17.4%.
Take `CC(C)Oc1ccc(C(=O)/C(=C\c2cccs2)c2nc3ccccc3o2)cc1`: the “hERG current change (%, negative = inhibition) at 1uM” value is reported as 20.7%.
On to `O=C(CCNS(=O)(=O)c1ccccc1F)NC1CCCCCC1`, for which the “hERG current change (%, negative = inhibition) at 1uM” value is reported as 5.57%.
For the compound `CC(C)C[C@H](NC(=O)C1(c2ccccc2)CCN(C(=O)[C@H]2CSCN2C(=O)OC(C)(C)C)CC1)C(=O)O`, the “hERG current change (%, negative = inhibition) at 1uM” value is on record as -0.115%.
For the compound `O=C(O)COc1ccccc1Cc1ccccc1`, the “hERG current change (%, negative = inhibition) at 1uM” value is -0.177%.
The figure for `CCOC(=O)Cc1csc(/C(=N/O)C(N)=O)n1` is 18.4%; for `CCN(CC)C(=O)CSc1nc2ccccc2c(=O)n1CC` it is 7.27%.
For the compound `Cc1ccc(NC(=O)CSc2nc3c(cc2C#N)C(=O)CCC3)cc1S(=O)(=O)N(C)C`, the “hERG current change (%, negative = inhibition) at 1uM” value is -1.53%.
Take `CCOC(=O)c1c(C)[nH]c(C)c1C(=O)CSc1nc2ccccc2n1CC`: the “hERG current change (%, negative = inhibition) at 1uM” value came out at 8.89%.
With `O=C(Nc1ccccc1)C12CC3CC(C1)CC(n1cnc([N+](=O)[O-])n1)(C3)C2`, the “hERG current change (%, negative = inhibition) at 1uM” value is -38.3%.
As for `CC(=O)NC1(C(=O)O)CCCC1`, the “hERG current change (%, negative = inhibition) at 1uM” value turned out to be 11.2%.
The figure for `O=C(O)c1cc(Nc2cc(Cl)c3nonc3c2[N+](=O)[O-])ccc1O` is 7.28%; for `NC(=O)C(Cc1ccccc1)N1C(=O)c2ccccc2C1=O` (stereo not drawn) it is 9.77%; for `O=C(N=C1SC2CS(=O)(=O)CC2N1Cc1ccccc1)C1CCCO1` (stereo not drawn) it is 10.6%.
Regarding `CCN(CC(=O)NCc1ccc(F)cc1)C(=O)c1cccnc1SC`, the “hERG current change (%, negative = inhibition) at 1uM” value is on record as -0.931%.
Next, `COc1ccc(OC)c(CNC(=O)Cc2c(C(=O)O)[nH]c3ccc(Cl)cc23)c1`: 16.7%; `CC(C)(C)c1ccc(C(=O)c2c[nH]c(C(=O)NCCc3ccccn3)c2)cc1`: 11.4%; `COC(=O)CCCNC(=O)c1ccccn1`: 3.16%.
For the compound `CCOC(=O)c1c(CC(C)C)csc1/N=C/C1=C(O)CCCC1=O`, the “hERG current change (%, negative = inhibition) at 1uM” value came out at 7.6%.
Turning to `Cc1ccccc1NC(=O)/C=C/c1ccc([N+](=O)[O-])s1`, the “hERG current change (%, negative = inhibition) at 1uM” value is on record as 4.03%.
On to `O=C(CCS(=O)(=O)c1ccc(Br)cc1)N1CCN(c2ccc(F)cc2)CC1`, for which the “hERG current change (%, negative = inhibition) at 1uM” value is reported as -12.6%.
Turning to `CN1CCC(OC(=O)c2ccccc2Cl)CC1.Cl`, the “hERG current change (%, negative = inhibition) at 1uM” value is 5.67%.
As for `CN(CC(=O)Nc1ccccc1Cl)C(=O)c1cc(=O)[nH]c2ccccc12`, the “hERG current change (%, negative = inhibition) at 1uM” value is on record as 7.33%.
Next, `COC(C(=O)Nc1ccc(F)cc1)c1ccccc1` (stereo not drawn): 0.755%.
As for `CCCCC(=O)Nc1ccccc1C(C)C`, the “hERG current change (%, negative = inhibition) at 1uM” value worked out at 7.23%.
Next, `CCn1c(SCC(=O)NNC(=O)c2ccc(C)cc2)nnc1-c1ccco1`: 14.8%; `CNC(=O)/C=C1\NC(C)(C)Cc2c1ccc1ccccc21`: 0.94%; `CCCN(CC(=O)Nc1ccccc1C)C(=O)c1cc(=O)[nH]c2ccccc12`: 6.64%.
As to `COC1=CC(=O)O[C@@H](/C=C/c2ccccc2)C1`, the “hERG current change (%, negative = inhibition) at 1uM” value is on record as 5.84%.
Take `CC(C)(C)c1ccc(NNC(=O)C2CCC2)cc1`: the “hERG current change (%, negative = inhibition) at 1uM” value was 15.5%.
As for `COCC(=O)N1CCCC(C(=O)c2ccc(C(F)(F)F)cc2)C1` (stereo not drawn), the “hERG current change (%, negative = inhibition) at 1uM” value stood at 12.5%.
On to `c1ccc(-c2nnsc2Sc2ccccn2)cc1`, for which the “hERG current change (%, negative = inhibition) at 1uM” value stood at 6.49%.
With `CCOc1ccc(Cl)cc1S(=O)(=O)N1CCC(C(=O)NCc2ccco2)CC1`, the “hERG current change (%, negative = inhibition) at 1uM” value turned out to be 5.93%.
Regarding `O=C(OCC(=O)N1CCCC1)c1ccccc1OCc1ccccc1`, the “hERG current change (%, negative = inhibition) at 1uM” value is 6.29%.
With `O=C(NCCCN1CCN(c2cccc(Cl)c2)CC1)c1nc(-c2ccncc2)no1`, the “hERG current change (%, negative = inhibition) at 1uM” value is listed as -30.6%.
Turning to `CC(=O)Nc1cccc(-c2nn[nH]n2)c1`, the “hERG current change (%, negative = inhibition) at 1uM” value is given as 9.69%.
Turning to `Cc1ccc(NC(=O)CSc2nnc(-c3ccccn3)n2C)cc1`, the “hERG current change (%, negative = inhibition) at 1uM” value is recorded as -1%.
For the compound `O=C(Nc1cccnc1)c1cc([N+](=O)[O-])ccc1Cl`, the “hERG current change (%, negative = inhibition) at 1uM” value is given as 5.62%.
`CCC(=O)N1CCN=C1SCc1c(F)cccc1Cl`: the “hERG current change (%, negative = inhibition) at 1uM” value is reported as 1.16%.
Next, `Cc1ccc(Cn2nc(C)cc2C(=O)Nc2ccc(Cl)cc2)cc1`: 13.8%; `CN(Cc1cn(C)nc1-c1cccc(Cl)c1)CC1CCCCO1` (stereo not drawn): 3.38%.
As to `O=C(Nc1nccs1)c1cnccn1`, the “hERG current change (%, negative = inhibition) at 1uM” value is on record as -3.18%.
Next, `CCNc1nc(OC)nc(Oc2ccc(=O)n(-c3ccccc3)n2)n1`: 13.5%; `O=C(COC(=O)c1ccccc1N1C(=O)C2C3CCC(C3)C2C1=O)c1ccccc1` (stereo not drawn): 7.07%; `CCN(CC)CCNCC(O)(c1ccc(Cl)cc1)c1ccc(Cl)cc1`: -84.4%.
For `COc1ccc(Br)cc1CNC(=O)Cc1cccs1`, the “hERG current change (%, negative = inhibition) at 1uM” value turned out to be 9.25%.
In the case of `CC(=O)c1c(C)[nH]c(C(=O)COC(=O)CNS(=O)(=O)c2ccccc2)c1C`, the “hERG current change (%, negative = inhibition) at 1uM” value came to 4.64%.
Turning to `O=C(Nc1ccc(S(=O)(=O)N2CCOCC2)cc1)c1cccnc1`, the “hERG current change (%, negative = inhibition) at 1uM” value was 5.15%.
With `CCOc1ccc(NC(=O)c2ccc(NC(=O)CN3C(=O)C(=O)N(CC(C)C)C3=O)cc2)cc1`, the “hERG current change (%, negative = inhibition) at 1uM” value worked out at 2.45%.
Consider `Cc1ccc(-c2nc3ccccc3[nH]2)cc1NC(=O)c1sc2ccccc2c1Cl`, for which the “hERG current change (%, negative = inhibition) at 1uM” value is on record as 12.8%.
Turning to `Cc1noc(C)c1CSCC(=O)Nc1cc(Cl)ccc1N1CCOCC1`, the “hERG current change (%, negative = inhibition) at 1uM” value is on record as -6.98%.
As to `O=S(=O)(N/N=C\C=C\c1ccccc1)c1ccc(Br)cc1`, the “hERG current change (%, negative = inhibition) at 1uM” value amounted to 0.94%.
As for `COc1cc([N+](=O)[O-])ccc1NC(=S)N1CCOCC1`, the “hERG current change (%, negative = inhibition) at 1uM” value is on record as -1.23%.
In the case of `COc1ccc2[nH]c(C(=O)N(C)c3ccc(F)cc3F)cc2c1`, the “hERG current change (%, negative = inhibition) at 1uM” value is recorded as 12.5%.
The figure for `O=C(Nc1ccccc1Cl)C1C(c2ccccc2)C1(Cl)Cl` (stereo not drawn) is 13.5%; for `COC(=O)c1cn(Cc2ccccc2C)nn1` it is 6.66%.
For the compound `CCSc1nnc(NC(=O)c2ccco2)s1`, the “hERG current change (%, negative = inhibition) at 1uM” value is 8.84%.
Consider `CNC(=O)c1oc(-c2ccc(Cl)cc2)nc1C`, for which the “hERG current change (%, negative = inhibition) at 1uM” value was determined as 3.25%.
As to `CC(C)CC(NS(=O)(=O)c1ccc2c(c1)oc(=O)n2C)C(=O)N1CC=C(c2ccccc2)CC1` (stereo not drawn), the “hERG current change (%, negative = inhibition) at 1uM” value was 4.42%.
Consider `COc1cccc(C2/C(=C(/O)c3cnn(-c4ccccc4)c3C)C(=O)C(=O)N2CCN(C)C)c1OC` (stereo not drawn), for which the “hERG current change (%, negative = inhibition) at 1uM” value is given as 14.3%.
Turning to `NS(=O)(=O)c1ccc(CCNC(=O)c2ccc(OCC3CCCO3)cc2)cc1` (stereo not drawn), the “hERG current change (%, negative = inhibition) at 1uM” value was 11.1%.
Take `c1ccn(-c2ncnc3sc4c(c23)CCCC4)c1`: the “hERG current change (%, negative = inhibition) at 1uM” value was 6.23%.
As for `CC1Cc2ccccc2N1C(=O)COc1ccc2c(c1)OCO2` (stereo not drawn), the “hERG current change (%, negative = inhibition) at 1uM” value is on record as 13.7%.
The figure for `O=C(Cn1cnc2cc([N+](=O)[O-])ccc2c1=O)Nc1ccc2c(c1)OCO2` is 6.93%; for `COc1ccc(C(=O)NC(=S)NNC(=O)c2ccncc2)cc1Br` it is 7.59%; for `CCCN1C2CCCC1CC(NC(=S)Nc1cccc(C)c1C)C2` (stereo not drawn) it is 21.9%.
The figure for `COc1cc(OC)cc(C(=O)N[C@H](C(=O)Nc2nc3c(s2)CCCC3)C(C)C)c1` is 14.4%; for `O=C(O)CCCN=Cc1c(O)c2ccccc2oc1=O` it is 12.8%.
Turning to `O=C(Nc1ccccc1)c1[nH]ncc1[N+](=O)[O-]`, the “hERG current change (%, negative = inhibition) at 1uM” value was -8.36%.
As to `c1ccc2c(c1)C(=NCC1CCCO1)NC2=NCC1CCCO1` (stereo not drawn), the “hERG current change (%, negative = inhibition) at 1uM” value was 2.35%.
As for `O=C(CN(Cc1ccc(Cl)cc1)C(=O)CN1C(=O)COc2ccccc21)NC1CCCC1`, the “hERG current change (%, negative = inhibition) at 1uM” value turned out to be 12%.
On to `CCC(C)c1ccc2oc(-c3ccc(NC(=O)Cn4cnc5c(=O)n(C)c(=O)n(C)c54)cc3)nc2c1` (stereo not drawn), for which the “hERG current change (%, negative = inhibition) at 1uM” value turned out to be 14.4%.
`Cn1nc(C(=O)NC2CCCCC2)c2ccccc2c1=O`: the “hERG current change (%, negative = inhibition) at 1uM” value was -2.73%.
